# Experimental data: publication PMC8462813
# Chains of the proteins cited; added tags and fusions are not shown.
# UniProt P92973: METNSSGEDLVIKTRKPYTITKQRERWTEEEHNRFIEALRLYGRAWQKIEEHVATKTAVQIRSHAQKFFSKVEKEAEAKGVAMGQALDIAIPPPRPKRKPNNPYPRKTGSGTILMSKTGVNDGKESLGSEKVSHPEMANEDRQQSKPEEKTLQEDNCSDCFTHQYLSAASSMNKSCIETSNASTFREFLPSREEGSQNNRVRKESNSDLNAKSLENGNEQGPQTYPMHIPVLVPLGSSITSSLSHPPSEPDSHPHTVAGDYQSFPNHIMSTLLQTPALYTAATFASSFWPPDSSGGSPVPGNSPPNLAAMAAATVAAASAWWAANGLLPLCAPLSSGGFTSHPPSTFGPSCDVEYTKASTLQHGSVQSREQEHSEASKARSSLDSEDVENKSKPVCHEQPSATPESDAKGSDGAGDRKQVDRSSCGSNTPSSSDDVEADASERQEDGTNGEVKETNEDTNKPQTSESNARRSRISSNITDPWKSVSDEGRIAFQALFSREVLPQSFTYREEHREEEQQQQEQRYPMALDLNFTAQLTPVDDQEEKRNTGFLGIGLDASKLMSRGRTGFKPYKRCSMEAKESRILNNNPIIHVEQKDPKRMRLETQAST
# These are yes or no findings as the source states them, for the method shown. Some results given as binding are weak or reduced against the parent protein; the word gives no strength. Tags and fused reporters may be left off the sequences shown.
# B1: AD-ABI5 (ABSCISIC ACID-…5, full length, fused to the Gal4 activation domain) (protein, UniProt Q9SJN0 1-442)
# chain: MVTRETKLTSEREVESSMAQARHNGGGGGENHPFTSLGRQSSIYSLTLDEFQHALCENGKNFGSMNMDEFLVSIWNAEENNNNQQQAAAAAGSHSVPANHNGFNNNNNNGGEGGVGVFSGGSRGNEDANNKRGIANESSLPRQGSLTLPAPLCRKTVDEVWSEIHRGGGSGNGGDSNGRSSSSNGQNNAQNGGETAARQPTFGEMTLEDFLVKAGVVREHPTNPKPNPNPNQNQNPSSVIPAAAQQQLYGVFQGTGDPSFPGQAMGVGDPSGYAKRTGGGGYQQAPPVQAGVCYGGGVGFGAGGQQMGMVGPLSPVSSDGLGHGQVDNIGGQYGVDMGGLRGRKRVVDGPVEKVVERRQRRMIKNRESAARSRARKQAYTVELEAELNQLKEENAQLKHALAELERKRKQQYFESLKSRAQPKLPKSNGRLRTLMRNPSCPL
# Legend:
# Assay in all cases: two-hybrid; Gal4 system; baits in pGBKT7 (BD), preys in pGADT7 (AD), cotransformed into yeast AH109; growth on dropout medium lacking Leu, Trp, His and Ade for 4 days
# [1] = biological target: BD-CCA1 (… CLOCK-ASSOCIATED1, full length, fused to the Gal4 DNA-binding domain) (Arabidopsis thaliana) (UniProt P92973)
# [2] = biological target: T1, BD-LHY (LATE ELONGATED HYPOCOTYL, full length, fused to the Gal4 DNA-binding domain) (Arabidopsis thaliana) (UniProt Q6R0H1)
# T1 sequence: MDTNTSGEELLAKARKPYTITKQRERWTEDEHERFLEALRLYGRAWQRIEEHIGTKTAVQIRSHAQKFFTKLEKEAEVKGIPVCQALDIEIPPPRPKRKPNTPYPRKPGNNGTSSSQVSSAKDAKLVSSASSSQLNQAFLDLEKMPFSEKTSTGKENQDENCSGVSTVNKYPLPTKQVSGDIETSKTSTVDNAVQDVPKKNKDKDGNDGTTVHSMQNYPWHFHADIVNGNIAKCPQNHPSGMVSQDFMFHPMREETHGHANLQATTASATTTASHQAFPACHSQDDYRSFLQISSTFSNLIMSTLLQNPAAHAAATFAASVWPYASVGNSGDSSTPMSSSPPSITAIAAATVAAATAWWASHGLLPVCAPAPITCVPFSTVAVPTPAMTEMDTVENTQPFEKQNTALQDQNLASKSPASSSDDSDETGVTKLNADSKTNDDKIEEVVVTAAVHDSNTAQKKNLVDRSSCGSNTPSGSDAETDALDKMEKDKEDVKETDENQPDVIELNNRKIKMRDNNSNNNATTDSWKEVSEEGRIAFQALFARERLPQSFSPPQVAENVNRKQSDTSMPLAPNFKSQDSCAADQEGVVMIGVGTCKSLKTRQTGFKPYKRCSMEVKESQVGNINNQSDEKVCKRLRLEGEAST
# [3] = biological target: T2, BD-PRR5 (PSEUDO-RESPONSE REGULATOR5, full length, fused to the Gal4 DNA-binding domain) (Arabidopsis thaliana) (UniProt Q6LA42)
# T2 sequence: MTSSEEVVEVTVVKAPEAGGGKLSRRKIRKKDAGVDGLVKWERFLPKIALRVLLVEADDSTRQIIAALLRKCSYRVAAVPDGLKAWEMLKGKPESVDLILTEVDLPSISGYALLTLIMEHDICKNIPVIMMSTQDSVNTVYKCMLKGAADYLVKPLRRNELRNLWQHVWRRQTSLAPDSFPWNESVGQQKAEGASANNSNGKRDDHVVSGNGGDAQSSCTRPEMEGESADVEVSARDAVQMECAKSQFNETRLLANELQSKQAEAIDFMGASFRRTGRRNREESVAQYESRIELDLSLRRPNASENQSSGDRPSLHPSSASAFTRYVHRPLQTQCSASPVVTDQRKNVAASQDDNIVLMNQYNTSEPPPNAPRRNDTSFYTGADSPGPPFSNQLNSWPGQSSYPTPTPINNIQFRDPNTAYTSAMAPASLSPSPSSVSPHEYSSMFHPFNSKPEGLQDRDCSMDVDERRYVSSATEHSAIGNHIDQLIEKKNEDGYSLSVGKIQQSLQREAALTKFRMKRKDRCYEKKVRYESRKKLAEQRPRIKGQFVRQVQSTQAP
# [4] = biological target: T3, BD-PRR5^172-558 (Arabidopsis thaliana) (UniProt Q6LA42)
# T3 sequence: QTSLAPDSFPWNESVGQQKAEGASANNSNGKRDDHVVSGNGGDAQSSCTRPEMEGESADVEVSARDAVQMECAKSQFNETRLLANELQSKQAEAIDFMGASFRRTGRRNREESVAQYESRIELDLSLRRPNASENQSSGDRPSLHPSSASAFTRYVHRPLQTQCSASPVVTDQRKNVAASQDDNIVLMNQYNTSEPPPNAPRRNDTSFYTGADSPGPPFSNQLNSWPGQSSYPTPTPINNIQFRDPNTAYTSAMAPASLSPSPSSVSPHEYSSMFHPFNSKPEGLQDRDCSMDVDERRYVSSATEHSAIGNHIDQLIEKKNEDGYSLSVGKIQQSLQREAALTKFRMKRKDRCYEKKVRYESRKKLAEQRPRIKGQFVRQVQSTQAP
# [5] = biological target: T4, BD-PRR5^502-558 (Arabidopsis thaliana) (UniProt Q6LA42)
# T4 sequence: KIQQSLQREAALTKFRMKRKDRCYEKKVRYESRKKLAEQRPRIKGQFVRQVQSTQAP
binder,measurement,setting,value
B1,binding,[1],no binding
same,binding,[2],no binding
same,binding,[3],binds
same,binding,[4],binds
same,binding,[5],no binding
